{"source": "the supplement of paper PMC10338343", "note": "± gives the standard deviation. The list shows a part of the results, in another mix than the full data."}
{"system": "MIWI (PIWIL1) piRISC loaded with L1MC piRNA (30 nt)", "experiment": "pre-steady-state target cleavage rate (min^-1); higher = faster piRNA-guided slicing of the target", "settings": "guide: L1MC piRNA 5'p-UAACUAAAUACUAUGCAAGCUGUAGGUCCU; auxiliary factor: 500 nM mouse GTSF1", "summary_of_the_method": "(§1)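 Active affinity-purified piRISC (1 nM) loaded with one synthetic guide was mixed with a transcribed, DNA-blocked target RNA library (0.1 nM), with or without 500 nM GTSF1 partner protein, in HEPES–potassium acetate buffer at 33 °C for 0–8 or 0–960 min. Uncleaved targets were sequenced, normalised to depth and to weakly complementary targets, and pooled across three trials, with k3 capped at 0.0001 min^-1. The pre-steady-state cleavage rate was determined with a burst-and-steady-state fit.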"}
{"sequence": "UCCUGGAUCAGGAUGCAUAGUAUUUAGUAA", "pre-steady-state target cleavage rate": "0.0111 ± 0.0026"}
{"sequence": "UCCACCUACAGCUUGCAUAGUAUUUUCAAA [g6:g27:cont:t1A]", "pre-steady-state target cleavage rate": "0.364 ± 0.052"}
{"sequence": "UGGACCUACAGGAUGCAUAGUAUUUACAAA", "pre-steady-state target cleavage rate": "0.216 ± 0.039"}
{"sequence": "UCCUGCUACAGCUAGCAUAGUAUUUAGAAA", "pre-steady-state target cleavage rate": "0.328 ± 0.054"}
{"sequence": "UCCUGGAACAGCUUGCAUAGUAAUUAGAAA", "pre-steady-state target cleavage rate": "0.293 ± 0.055"}
{"sequence": "AGGACCUACAGCUUCCAUAGUAAUUAGUUA", "pre-steady-state target cleavage rate": "0.117 ± 0.036"}
{"sequence": "UCGACCUACAGCUUGCAUAGUAUAUUCAAA", "pre-steady-state target cleavage rate": "0.466 ± 0.065"}
{"sequence": "UGGACCUACAGCUUGCAUAGUUAAUACAAA", "pre-steady-state target cleavage rate": "0.0147 ± 0.0064"}
{"sequence": "AGGACCUACAGCUUGCAUAGUUAUUACAAA", "pre-steady-state target cleavage rate": "0.158 ± 0.048"}
{"sequence": "UCCUGGAACAGCAUGCAUAGUAUUUACAAA", "pre-steady-state target cleavage rate": "0.327 ± 0.041"}
{"sequence": "UCCUGGAUGUGGUUGCAUAGUAUUAAGUUA", "pre-steady-state target cleavage rate": "0.0068 ± 0.0047"}
{"system": "MIWI (PIWIL1) piRISC loaded with L1MC piRNA (30 nt)", "experiment": "pre-steady-state target cleavage rate (min^-1); MIWI and MILI are mouse PIWI proteins and EfPiwi is from a freshwater sponge; tags in brackets are library labels; higher = faster piRNA-guided slicing of the target", "settings": "guide: L1MC piRNA 5'p-UAACUAAAUACUAUGCAAGCUGUAGGUCCU; auxiliary factor: none (no GTSF1)", "summary_of_the_method": "as §1"}
{"sequence": "UCCUGGAUGUCGAACGUAAGUUAUUAGUUA", "pre-steady-state target cleavage rate": "< 0.0001"}
{"sequence": "UCCUGCAACAGCUUGCUUAGUAUUUAGUUA", "pre-steady-state target cleavage rate": "0.0478 ± 0.013"}
{"sequence": "UCCUGGAUGUCGAACGUAAGAAUUUAGAUA", "pre-steady-state target cleavage rate": "< 0.0001"}
{"sequence": "UCCUGGAUGUCGAACGUAUGUAUUAAGAUA", "pre-steady-state target cleavage rate": "< 0.0001"}
